PubChem BioAssay AID1030 (National Center for Advancing Translational Sciences (NCATS), 2008)
The whole screen tested about 220,000 compounds, of which about 16,000 (7.3%) were called active. The inconclusive results got no clear call from the source; some entries with a clear call stand among them for comparison. Calls come from the whole dose curve; as a rule, active = well fitted inhibition curve with a large enough effect (not every such curve was filed as active); inconclusive = small, poorly fitted or top-dose-only effect, or another doubt; inactive = no such curve, though single readings can be large or run the other way. No potency is given beside an inconclusive call; the fits are too rough.
Potency is the fitted concentration of half-maximal effect; tags give direction and shape of the fitted curve.

What follows are molecules tested against Aldehyde dehydrogenase 1A1 (Homo sapiens) (UniProt P00352) (assay: qHTS Assay for Inhibitors of Aldehyde Dehydrogenase 1 (ALDH1A1)). Details: Purified ALDH1A1, NADH fluorescence, propionaldehyde substrate; series mostly up to 75.3 µM.
Chain of UniProt P00352 (P00352 whole entry, looked up): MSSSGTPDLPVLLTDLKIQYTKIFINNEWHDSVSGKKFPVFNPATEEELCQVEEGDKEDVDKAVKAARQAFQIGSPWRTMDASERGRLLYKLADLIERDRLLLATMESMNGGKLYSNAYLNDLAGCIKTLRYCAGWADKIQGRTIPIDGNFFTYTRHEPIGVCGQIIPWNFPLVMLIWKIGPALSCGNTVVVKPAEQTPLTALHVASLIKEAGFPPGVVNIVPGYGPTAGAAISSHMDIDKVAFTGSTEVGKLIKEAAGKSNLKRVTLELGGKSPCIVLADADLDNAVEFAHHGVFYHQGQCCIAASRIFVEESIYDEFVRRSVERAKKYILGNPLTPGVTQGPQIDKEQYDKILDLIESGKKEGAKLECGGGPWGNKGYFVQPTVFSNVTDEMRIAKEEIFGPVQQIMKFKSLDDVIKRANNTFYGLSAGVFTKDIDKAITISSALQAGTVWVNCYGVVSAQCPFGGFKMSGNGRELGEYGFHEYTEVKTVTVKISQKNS
For `O=Cc1ccc(OCC(=O)Nc2ccccc2C(F)(F)F)cc1`, the Potency was inconclusive [inhibitor, single point]. For `CSc1nc(N)c2ncn([C@@H]3O[C@H](COP(=O)(O)OP(=O)(O)OP(=O)(O)O)[C@H](O)[C@H]3O)c2n1`, the Potency was “inactive”. For `CC(=O)c1cc(F)c(N2CCOCC2)cc1C`, the Potency was inconclusive [inhibitor, single point]. For `CCC(=O)NC(c1ccc(N(C)C)cc1)c1c(O)ccc2ccccc12` (configuration not stated), the Potency was inconclusive [inhibitor, single point]. In the case of `CCCCOc1ccc(CCC(=O)N/N=C/c2ccco2)cc1`, the Potency is reported as “inactive”. With `CC(=O)Nc1c(I)cc(I)c(C(=O)O)c1I` the Potency was “inactive”. With `O=S(=O)(NC1CCCCC1)c1ccc(Cl)nc1` the Potency was inconclusive [inhibitor, single point]. With `O=c1cc(NS(=O)(=O)c2ccccc2)nc(SCc2c(Cl)cccc2Cl)[nH]1` the Potency was inconclusive [inhibitor, single point]. In the case of `COC(=O)c1nn(-c2ccc(OC)cc2)c(=O)cc1NN`, the Potency is reported as “inactive”. In the case of `CCCCOC(=O)CSc1nc2c(c(=O)[nH]c(=O)n2C)n1C/C=C(\C)Cl`, the Potency is reported as inconclusive [inhibitor, partial curve]. With `Cc1c(C(=O)N(Cc2ccccc2)Cc2cccnc2)cnn1-c1ccc(F)cc1` the Potency was inconclusive [inhibitor, single point]. In the case of `CCCOc1ccc(N2C(=O)CC(N3CCN(S(=O)(=O)c4ccccc4)CC3)C2=O)cc1` (configuration not stated), the Potency is reported as inconclusive [inhibitor, partial curve]. In the case of `COC(=O)C1=C(C)N=C2SCCC(=O)N2C1c1ccc(C(=O)OC)cc1` (configuration not stated), the Potency is reported as inconclusive [inhibitor, single point]. With `O=C(COC(=O)CCCNC(=O)c1ccc(Cl)cc1)NCc1ccccc1Cl` the Potency was active: 4.47 µM. With `COc1ccc2[nH]c(=O)c(CN(Cc3ccco3)C(c3nnnn3Cc3ccccc3)C(C)C)cc2c1` (configuration not stated) the Potency was inconclusive [inhibitor, single point]. For `Cc1cc(=O)[nH]c(N/N=C/c2c(C)nn(-c3ccc(F)cc3)c2Cl)n1`, the Potency was active: 6.31 µM. With `CC(=O)c1sc(NC(=O)c2ccco2)nc1-c1ccccc1` the Potency was “inactive”. `CC(C)CN1CCN(CC#Cc2ccccc2)CC1CCO` (configuration not stated) was tested, and the Potency was inconclusive [inhibitor, single point]. For `O=C1c2ccccc2C(=O)N1CSc1nnnn1-c1ccccc1`, the Potency was inconclusive [inhibitor, partial curve]. With `COC(=O)CSc1nnc(-c2ccc(S(=O)(=O)N3CCCC3)cc2)n1C` the Potency was inconclusive [inhibitor, single point]. `CSc1ccc(Cl)c(C(=O)Nc2ccc(Cl)cn2)c1` was tested, and the Potency was inconclusive [inhibitor, partial curve]. `O=C(NC(=S)Nc1cccc([N+](=O)[O-])c1)c1ccco1` was tested, and the Potency was “inactive”. For `COc1ccc(N2C(=O)CC(C#N)=C2N)cc1`, the Potency was inconclusive [inhibitor, single point]. `Cc1ccccc1-c1nc(CS(=O)(=O)CC(=O)NCc2ccc3c(c2)OCO3)c(C)o1` was tested, and the Potency was inconclusive [inhibitor, single point]. With `Cc1c(NC(=O)C(C)OC(=O)c2cc3c4ccccc4n(C)c3s2)c(=O)n(-c2ccccc2)n1C` (configuration not stated) the Potency was inconclusive [inhibitor, single point]. `CSc1nsc(SC)c1C(=O)N1CCN(S(=O)(=O)c2ccc(C)cc2)C1C` (configuration not stated) was tested, and the Potency was inconclusive [inhibitor, single point]. For `COc1ccc(CN(CC2CCC(C(=O)O)CC2)C(=S)Nc2ccccc2C)cc1` (configuration not stated), the Potency was inconclusive [inhibitor, single point]. In the case of `COC(=O)c1ccc(COC(=O)c2ccc(CO)cc2)o1`, the Potency is reported as “inactive”. `Cc1ccc2nc3ccc(N4CCN(C)CC4)nn3c(=O)c2c1` was tested, and the Potency was inconclusive [inhibitor, partial curve]. In the case of `COc1ccc(NC(=O)N(C2CCCCC2)C(C)c2ccco2)c(OC)c1` (configuration not stated), the Potency is reported as “inactive”. In the case of `COc1ccc(C(=O)NCCSCc2ccc(C)cc2)cc1`, the Potency is reported as active: 2.24 µM. With `Cc1c(NC(=O)Nc2ccc(Cl)c(Cl)c2)c(=O)n(-c2ccccc2)n1C` the Potency was “inactive”. `CS(=O)(=O)c1cccc(C(=O)NC(c2ccccc2)c2ccccc2)c1` was tested, and the Potency was inconclusive [inhibitor, partial curve]. `CCc1nnc(NC(=O)CSc2nc(C)c3c(c2C#N)CCCC3)s1` was tested, and the Potency was inconclusive [inhibitor, partial curve]. For `COc1nc(N=C(N)N)nc2ccc(C)cc12`, the Potency was inconclusive [inhibitor, single point]. `CCOC(=O)C(=CNc1cscc1S(=O)(=O)C(C)C)C(=O)OCC` was tested, and the Potency was inconclusive [inhibitor, single point]. With `CN1CC(=O)N(C)c2ncn(Cc3ccccc3)c2C1=O` the Potency was inconclusive [inhibitor, single point]. `Cc1nc2ncnn2c(C)c1CCC(=O)NCCc1ccccc1` was tested, and the Potency was “inactive”. For `CCC(=O)n1nc(NCc2ccccc2OC)nc1NCc1ccccc1OC`, the Potency was “inactive”. With `Cn1c(SCC(=O)Nc2ccc3cn[nH]c3c2)nnc1-c1cccs1` the Potency was “inactive”. `CCN(CC)CCNC(=S)Nc1ccc2nc(N3CCCC3)cc(C)c2c1` was tested, and the Potency was “inactive”. `COC1=CC(=O)C(O)=C/C1=C\C=C\c1ccccc1` was tested, and the Potency was active: 12.6 µM. For `O=C(Oc1ccccc1)N1CCC2(CC1)CN(c1ccccc1)C2`, the Potency was “inactive”. `Cc1cccc(N2CCC(N=CN(C)C)=N2)c1` was tested, and the Potency was inconclusive [inhibitor, single point]. In the case of `O=S(=O)(CCSc1nc2ccccc2s1)c1nc2ccccc2s1`, the Potency is reported as active: 0.1 µM. In the case of `Cc1ccc(C(=O)Nc2ccccc2-c2ccccc2)cc1S(=O)(=O)Nc1cccc(C)c1C`, the Potency is reported as inconclusive [inhibitor, single point]. In the case of `CC(=O)Nc1nc2ccc(-c3nc4ccccc4o3)cc2s1`, the Potency is reported as inconclusive [inhibitor, single point].
